# PubChem BioAssay AID504339 (National Center for Advancing Translational Sciences (NCATS), 2011)
# Screen size: about 390,000 compounds; about 17,000 (4.4%) were called active. Inconclusive means that the source gave no clear call. Such entries were picked first, then a sample of the others. Calls follow the shape of the dose curve; as a rule, active = well fitted inhibition curve with a large enough effect; inconclusive = small, poorly fitted or top-dose-only effect; inactive = no such curve, though single readings can be large or run the other way. Potencies of inconclusive entries are doubtful fits and often do not repeat.
# Biological target: Lysine-specific demethylase 4A (Homo sapiens) (UniProt O75164)
# Test: qHTS Assay for Inhibitors of JMJD2A-Tudor Domain; also: nearly all actives have a fitted effect of over 50% in size
# Conditions: AlphaScreen JMJD2A-Tudor / H3K4me3 peptide binding; activity change, negative = inhibition: at 114 µM (top of the series)
# % is scaled to controls: 0 for no effect and ±100 for the full control effect; potency is read from the fitted curve at half-maximal effect; tags tell the direction and shape of the fitted curve.
# Sequence of UniProt O75164 (O75164 whole entry, looked up, the tested form may be a part): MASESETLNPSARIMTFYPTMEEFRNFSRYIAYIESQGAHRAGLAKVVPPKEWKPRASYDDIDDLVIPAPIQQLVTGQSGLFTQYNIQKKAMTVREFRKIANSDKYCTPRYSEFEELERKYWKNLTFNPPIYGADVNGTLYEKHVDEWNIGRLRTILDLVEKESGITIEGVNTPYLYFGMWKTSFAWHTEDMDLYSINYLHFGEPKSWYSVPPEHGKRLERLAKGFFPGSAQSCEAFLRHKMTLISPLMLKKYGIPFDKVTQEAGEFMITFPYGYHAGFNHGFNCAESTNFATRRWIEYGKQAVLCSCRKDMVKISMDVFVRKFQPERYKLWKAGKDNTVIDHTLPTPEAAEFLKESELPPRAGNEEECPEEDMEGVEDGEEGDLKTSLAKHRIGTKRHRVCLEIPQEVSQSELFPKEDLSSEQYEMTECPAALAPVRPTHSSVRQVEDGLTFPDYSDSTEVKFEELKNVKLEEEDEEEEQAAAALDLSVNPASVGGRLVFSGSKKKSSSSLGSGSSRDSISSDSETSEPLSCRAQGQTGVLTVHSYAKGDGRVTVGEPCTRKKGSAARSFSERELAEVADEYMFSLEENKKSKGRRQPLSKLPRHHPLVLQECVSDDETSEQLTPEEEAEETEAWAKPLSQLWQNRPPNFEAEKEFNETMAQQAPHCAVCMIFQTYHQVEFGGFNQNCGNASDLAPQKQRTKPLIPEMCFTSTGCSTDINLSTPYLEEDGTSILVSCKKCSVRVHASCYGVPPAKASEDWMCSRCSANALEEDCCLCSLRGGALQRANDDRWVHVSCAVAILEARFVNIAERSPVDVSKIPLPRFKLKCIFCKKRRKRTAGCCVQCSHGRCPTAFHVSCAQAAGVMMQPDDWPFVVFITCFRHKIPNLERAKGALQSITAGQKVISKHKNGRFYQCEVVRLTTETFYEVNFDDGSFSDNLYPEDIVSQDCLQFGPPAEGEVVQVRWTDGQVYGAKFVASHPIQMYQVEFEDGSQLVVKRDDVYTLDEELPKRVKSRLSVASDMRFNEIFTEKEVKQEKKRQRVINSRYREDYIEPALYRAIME
SMILES,Potency,"activity change, negative = inhibition"
CCc1nnc2c(N3CCN(c4cccc(C)c4)C(C)C3)nc3ccccc3n12 (stereo not given),"inconclusive: 56.2 µM [inhibitor, partial curve]",
Cc1ccc2[nH]c3c(c2c1)CCCC3NC(=O)CCl (stereo not given),"inconclusive: 56.2 µM [inhibitor, partial curve]",
COc1ccc(N2CCN(C(=O)c3ccc(S(=O)(=O)N4CCCCCC4)cc3)CC2)cc1,"inconclusive: 28.2 µM [inhibitor, partial curve]",
CCc1ccc(CN(C(=O)c2ccco2)C2CCS(=O)(=O)C2)cc1 (stereo not given),active: 22.4 µM,
COc1ccc(/C=C/C(=O)OCC(=O)N2CC(=O)Nc3ccccc32)cc1S(=O)(=O)N1CCOCC1,,inactive: -18.2%
Cc1ccccc1Nc1ncnc2c1cnn2Cc1ccccc1,,inactive: -19.9%
Fc1ccc(Br)cc1C1C=C(c2ccc(Br)s2)Nc2ncnn21 (stereo not given),"inconclusive: 79.4 µM [inhibitor, single point]",
c1ccc(-c2nc[nH]c2-c2ccccc2)cc1,"inconclusive: 31.6 µM [inhibitor, partial curve]",
COc1cc(C=NNC(=O)c2ccccc2-n2cccc2)ccc1O,,inactive: -20.5%
CN1CCN(c2oc(Cc3cccc4ccccc34)nc2C#N)CC1,"inconclusive: 79.4 µM [inhibitor, partial curve]",
CC(Sc1nnc(C(F)(F)F)n1C)C(=O)Nc1ccc(S(N)(=O)=O)cc1 (stereo not given),"inconclusive: 39.8 µM [inhibitor, single point]",
Cc1noc(C)c1COC(=O)c1cc(C)n(-c2ccccc2)c1C,"inconclusive: 44.7 µM [inhibitor, full curve]",
CCN1CCN(Cc2ccc(NC(=O)c3cc(NC(=O)c4cncc(-c5ccc(C#N)cc5)c4)cc(OC)c3)cc2C(F)(F)F)CC1,"inconclusive: 50.1 µM [inhibitor, partial curve]",
CN(C(=S)Nc1ccc(SC(F)F)cc1)c1ccc(O)cc1,"inconclusive: 70.8 µM [inhibitor, single point]",
COC(=O)COc1ccc(C2C(C(=O)OC)=C(C)NC3=C2C(=O)c2ccccc23)cc1OC (stereo not given),"inconclusive: 28.2 µM [inhibitor, partial curve]",
CC(C)c1ccc(C2Sc3ccccc3NC3=C2C(=O)c2ccccc23)cc1 (stereo not given),active: 11.2 µM,
Cc1ccc(C)c(CSc2nnc(-c3ccccn3)n2N)c1,active: 39.8 µM,
CC1(C)CC(=O)C2=C(C1)OC(N)=C(C#N)C2c1cc2c(cc1[N+](=O)[O-])OCO2 (stereo not given),"inconclusive: 17.8 µM [inhibitor, partial curve]",
CCOC(=O)c1c(-c2ccsc2)csc1N,"inconclusive: 79.4 µM [inhibitor, single point]",
COc1cc(C(=O)Nc2ccc3c(c2)Cc2cc(NC(=O)c4cc(OC)c(OC)c(OC)c4)ccc2-3)cc(OC)c1OC,"inconclusive: 89.1 µM [inhibitor, single point]",
COc1ccccc1NNC(=O)c1cccnc1Oc1ccccc1,,inactive: -14.9%
Cc1cccc(C)c1N1CCN(C(=O)Nc2ccc3c(c2)OCCO3)CC1,active: 50.1 µM,
CCOc1ccc(CNC(=O)CCC(=O)N2CC3CCCN3c3ccccc32)cc1 (stereo not given),"inconclusive: 56.2 µM [inhibitor, partial curve]",

SMILES,Potency,"activity change, negative = inhibition"
COc1ccc(Cl)cc1NC(=O)c1cc(S(=O)(=O)N2CCC(C)CC2)cn1C,,inactive: -13.7%
Cc1ccc(C)n1-c1nnc(N2CCC(C(=O)NCc3ccc(F)cc3)CC2)s1,,inactive: -19.5%
COCCNC(=S)N(CCc1c(C)[nH]c2ccc(C)cc12)Cc1cccnc1,"inconclusive: 50.1 µM [inhibitor, partial curve]",
Cc1ccc(C)c2sc(NC(=O)c3ccc(N4CCCCC4)c([N+](=O)[O-])c3)nc12,"inconclusive: 14.1 µM [inhibitor, partial curve]",
O=C(CN1C(=O)CSc2ccccc21)Nc1ccc2c(c1)OCCO2,"inconclusive: 79.4 µM [inhibitor, partial curve]",
C=CC[n+]1c(-c2ccc(C)cc2)csc1NNC(=O)Nc1ccccc1,active: 28.2 µM,
CC(C)c1nc2ccc(C(=O)NCc3ccc(N(C)C)cc3)cc2o1,"inconclusive: 44.7 µM [inhibitor, partial curve]",
Cc1cc(CNC(=O)COC(=O)C2CC3CCCC(C2)C3=O)cc(C)c1O (stereo not given),,inactive: -2.92%
Cc1cccc(N(CC(=O)N2CCc3ccccc3C2)S(C)(=O)=O)c1C,,inactive: -8.97%
CC1CCCN(c2ccc(C(=O)NCc3ccco3)cc2[N+](=O)[O-])C1 (stereo not given),active: 56.2 µM,
O=C(NCC(c1cccs1)N1CCOCC1)c1ccccc1NS(=O)(=O)c1cccc([N+](=O)[O-])c1 (stereo not given),,inconclusive: -36.6% [inhibitor]
CSc1ccc(C2c3[nH]c4ccccc4c3CCN2C(=O)CCc2ccccc2)cc1 (stereo not given),"inconclusive: 11.2 µM [inhibitor, full curve, poor fit]",
CNC(=S)N(CCc1c(C)[nH]c2ccc(Cl)cc12)Cc1cc(OC)c(OC)c(OC)c1,"inconclusive: 44.7 µM [inhibitor, partial curve]",
CCOc1ccc(CN(CCC#N)C(=S)NC(=O)c2ccccc2)cc1,,inactive: -24.5%
COc1cccc(/C=N/n2c(-c3ccco3)nc3ccccc3c2=O)c1OC,,inactive: -20.2%
COc1ccc(SC[C@H](CC(C)C)N2CCN(CCc3ccccc3)CCC2=O)cc1,,inactive: -27.5%
CSc1nc(C=Nc2ccccc2Cl)c(O)n1Cc1cccc(Cl)c1,active: 79.4 µM,
O=C(NCC(c1ccco1)N1CCc2ccccc21)c1ccccc1Cl (stereo not given),"inconclusive: 56.2 µM [inhibitor, partial curve]",
COc1cccc(C(=O)C2CCCN(CC3=Cc4cc(OC)ccc4OC3)C2)c1 (stereo not given),"inconclusive: 12.6 µM [inhibitor, full curve, poor fit]",
c1ccc2c(c1)OCCc1c-2[nH]c2ccccc12,"inconclusive: 44.7 µM [inhibitor, partial curve]",
COc1cc(OC)c(NC(=O)CCNC(=O)Cn2ccc3ccccc3c2=O)cc1Cl,,inactive: -18.2%
Cc1ccc(-c2csc(NC(=S)NC(=O)c3cccs3)n2)cc1,,inactive: -12%
